Results as given in PubChem BioAssay AID463173 (ICCB-Longwood Screening Facility, Harvard Medical School, 2010).
Out of some 52,000 compounds screened, about 1,700 (3.3%) were called active. Rule as the data show it: active = survival mostly below about 52% (no sharp cut-off); inactive = mostly above about 56%. The list shows a part of the results.

Test system: Wild type
Assay: growth inhibition of S. aureus wild type versus tarO mutant, primary screen, teichoic acid synthesis inhibitors, RN4220, OD600 (AID 463173)
Conditions: S. aureus RN4220 wild type/DeltatarO growth, OD600, 18 h, active compounds read low, screened at 18.75 µg/mL (by protocol)

SMILES	survival
CC(=O)Nc1c(C)nn(-c2ccccc2)c1N1CCC(C(=O)Nc2cc(Cl)ccc2C)CC1	inactive: 82%
Cc1cccc(NC(=O)C(=O)NCC(c2cccnc2)N2CCOCC2)c1 (stereo not given)	inactive: 95%
CCCOc1ccc(C2c3c(-c4ccccc4O)n[nH]c3C(=O)N2Cc2ccncc2)cc1OCC (stereo not given)	inactive: 93%
CS(=O)(=O)N1CCN(C2CCCCC2)CC1	inactive: 107%
COc1ccc(C)cc1NC(=O)C(=O)NCCc1csc(-c2ccc(C)cc2)n1	inactive: 66%
Cc1ccc(CCNC(=O)C2CCCN(Cc3nc(-c4cccc(Cl)c4)oc3C)C2)cc1 (stereo not given)	active: 9%
CCOC(=O)c1c(C)c(C(=O)NCCc2ccc(OC)cc2)c(C)n1C	inactive: 88%
Cc1cccc(CNC(=O)c2cnc3sc(N4CCCCC4)nn3c2=O)c1	inactive: 132%
CCc1nn(CC(=O)Nc2cccc(C)c2C)c(=O)c2cc3sccc3n12	inactive: 83%
CN(C(=O)CSc1cn(CC(=O)N2CCCCC2)c2ccccc12)c1ccccc1	inactive: 90%
COc1ccc(/C=C/c2nc(C#N)c(N3CCN(c4ccccc4)CC3)o2)cc1OC	inactive: 112%
O=C(Cc1ccc(F)cc1)N1CCC(c2nc3c(nnn3Cc3ccc(Cl)cc3)c(=O)[nH]2)CC1	inactive: 33%
COc1ccc(-c2noc(C3CC(=O)N(c4cc(C)cc(C)c4)C3)n2)cc1 (stereo not given)	inactive: 81%
CCC(Oc1ccccc1)C(=O)Nc1ccccc1OCc1cc(=O)n2ccccc2n1 (stereo not given)	inactive: 71%
CCC(C)NC(=O)c1ccc2c(c1)N(Cc1ccccc1)C(=O)c1ccccc1S2(=O)=O (stereo not given)	inactive: 85%
Cc1ccc2nc(-c3ccccn3)c(Nc3ccc(F)cc3)n2c1	active: 16%
CN1CCN(CCCNC(=O)c2cnn(-c3ccccc3)c2C2CCN(C(=O)OC(C)(C)C)CC2)CC1	inactive: 123%
CC1=C(C(=O)Nc2ccc(Cl)cc2)C(C(C)C)n2nc(SCc3cccc(C)c3)nc2N1 (stereo not given)	inactive: 92%
CC(C)(C)C1CCc2onc(C(=O)Nc3sc4c(c3C(N)=O)CCCC4)c2C1 (stereo not given)	inactive: 68%
NC(=O)c1cc(S(=O)(=O)NCC2CCC(C(=O)Nc3cccc(Cl)c3)CC2)cs1 (stereo not given)	inactive: 71%
Cc1c(Cl)cccc1NC(=O)CCS(=O)(=O)c1ccc(Br)s1	inactive: 90%
CCCc1nnc(NC(=O)c2nc(S(=O)(=O)Cc3ccc(C)cc3)ncc2Cl)s1	inactive: 47%
O=C(c1ccc2c(Cl)c3c(nc2c1)CCCC3)N1CCN(c2ccccc2)CC1	active: 0%

SMILES	survival
Cc1c2cnn(-c3ccccc3)c(=O)c2c(C)n1CCCC(=O)Nc1ccc(F)cc1F	inactive: 77%
Cc1ccc(NC(=O)CSc2nc3ccccc3c3nc(CCn4c(C)nc5ccccc54)nn23)cc1F	inactive: 68%
CCOc1ccccc1NS(=O)(=O)c1c(-c2ccc(C)cc2)csc1C(=O)OC	inactive: 87%
Cc1ccc2c(c1)nnn2C1CCN(C(=O)c2ccccc2)CC1	inactive: 107%
CCOC(=O)c1cc(-c2ccccc2)n(CC(=O)NCc2ccccc2OC)c1C	inactive: 78%
Cc1ccc(C)c(NC(=O)CCNS(=O)(=O)c2ccc3c(c2)CCCC(=O)N3)c1	active: -6%
CN(C(=O)CSc1nnc2[nH]c(=O)cc(-c3ccccc3)n12)c1ccccc1	inactive: 136%
COCCNC(=O)c1ccc2c(c1)N(Cc1cccc(Cl)c1)C(=O)c1ccccc1S2=O (stereo not given)	inactive: 69%
O=c1cc(O)c2ccccc2[nH]1	inactive: 135%
Cn1c(=O)n(C)c2cc(S(=O)(=O)Nc3ccccc3C(=O)O)ccc21	inactive: 79%
Cc1ccc(NCC(=O)N=Nc2c(O)[nH]c3ccccc23)cc1	inactive: 114%
Fc1ccc(CNc2ncnc3c2c(-c2ccccc2)cn3-c2ccccc2)cc1	inactive: 136%
CC1CC(C)CN(CCC(=O)Nc2ccccc2F)C1 (stereo not given)	inactive: 108%
Cc1ccc(C)c(N2CCN(C(=O)CN3C(=O)CSc4c3c(C)nn4-c3ccccc3)CC2)c1	inactive: 69%
O=C(Nc1ccc(F)c(F)c1)C1CCCN(S(=O)(=O)c2cccc3nonc23)C1 (stereo not given)	inactive: 138%
CC1(C)Cc2c(ccc3ccccc23)C(=O)N1	inactive: 113%
O=C(NCn1nc(-c2ccccc2)nc1-c1ccccc1)c1cccnc1	inactive: 109%
Cc1cc2cc3c(cc2nc1SCCN1CCCC1)OCCO3	inactive: 112%
Cc1cc(C)c2c(=O)cc(CSCC(=O)Nc3nnc(C)s3)[nH]c2c1	inactive: 138%
COc1ccc(N(C)C(=O)NCc2noc3ccc(C)cc23)c(OC)c1	inactive: 90%
CCCNC(=O)Nc1cc(C(=O)NCc2cccc(OCC)c2)ccc1N1CCCC1	inactive: 60%
CC(C)(C)C(=O)NC1CCN(CC(=O)Nc2ccccc2)CC1	inactive: 103%
Cc1cccc(NC(=O)C2CCCN(S(=O)(=O)c3c(C)noc3/C=C/N(C)C)C2)c1C (stereo not given)	inactive: 71%

SMILES	survival
CC(C)(C)C1CCc2nc(NC(=O)Cc3ccc(Cl)cc3)sc2C1 (stereo not given)	inactive: 60%
CCC(Sc1nncn2c1cc1sccc12)C(=O)Nc1cccc(OC)c1 (stereo not given)	inactive: 74%
COc1ccc(C(=O)CCC(=O)Nc2ccccc2C)cc1	inactive: 124%
COc1ccccc1NC(=O)CSCc1cc(=O)c2c(C)cc(C)cc2[nH]1	inactive: 99%
Cc1ccc(CN2CCN(C3CCN(C(=O)OC(C)(C)C)CC3)C(=O)C2=O)cc1	inactive: 124%
CC(C)(C)c1ccc(C(=O)Nc2ccccc2C(=O)OCc2cc(=O)n3ccsc3n2)cc1	inactive: 80%
CCC(=O)N1CCc2cc(Br)cc(S(=O)(=O)CCC(=O)Nc3ccccc3C)c21	inactive: 74%
Cc1cc2nc3c(=O)n(C)c(=O)n(C)c3nc2cc1N=CN(C)C	inactive: 77%
CCOC(=O)CC(NC(=O)Cn1nnc(-c2ccccc2C)n1)c1ccc(OC)cc1 (stereo not given)	inactive: 75%
COc1ccc(-c2nc(SCC(=O)NCCCc3ccccc3)n[nH]2)cc1	inactive: 69%
O=C(CSc1ncn[nH]1)c1ccc(Cl)cc1	inactive: 102%
COc1ccc(NC(=O)CCc2c(C)nn(-c3ccc(N4CCOCC4)nn3)c2C)cc1Cl	inactive: 71%
CCN(CC)CCCNC(=O)c1oc2c(c1C)-c1nn(Cc3ccc(Cl)cc3)cc1CC2	inactive: 95%
Cc1ccc2occ(CC(=O)Nc3ccc(S(N)(=O)=O)cc3)c2c1	inactive: 132%
COc1ccc(NC(=O)Cn2c(C)c3cnn(-c4ccccc4)c(=O)c3c2C)c(OC)c1	inactive: 86%
Cc1cc(C)n(C(C)CC(=O)O)n1 (stereo not given)	inactive: 103%
Cc1cccc(-c2noc(C3CC(=O)N(c4ccc5c(c4)OCCO5)C3)n2)c1 (stereo not given)	inactive: 79%
Cc1ccc(N(CC(=O)NC(C)c2ccccc2)S(=O)(=O)c2c(C)noc2C)cc1 (stereo not given)	inactive: 98%
CCCCc1noc2c1/C(=N\O)CC(c1ccccc1)C2 (stereo not given)	inactive: 108%
CN1CCN(C(=O)/C=C\C(=O)O)CC1	inactive: 122%
Cc1cc(OCC(=O)Nc2sc3c(c2C(N)=O)CCCC3)ccc1C(C)C	inactive: 79%
CCOc1ccc(C2c3c(-c4ccccc4O)n[nH]c3C(=O)N2Cc2ccncc2)cc1 (stereo not given)	inactive: 83%
CCc1ccc(C(=O)c2cn(CC(=O)Nc3ccc(F)cc3)c3cc4c(cc3c2=O)OCO4)cc1	inactive: 137%

SMILES	survival
FC(F)(F)c1cc(-c2ccc3c(c2)OCO3)nc(=S)[nH]1	inactive: 109%
COc1ccccc1-c1noc(-c2ccc(N3CCC(C)CC3)c([N+](=O)[O-])c2)n1	inactive: 108%
COc1cc(C(=O)Nc2cc3c(cc2C)n(C)c(=O)c(=O)n3C)cc(OC)c1OC	inactive: 83%
CC1Cc2ccccc2N1C(=O)CSc1nnc2c(n1)[nH]c1ccccc12 (stereo not given)	inactive: 112%
Cc1ccc(NC(=O)c2sc3nc(-c4cc5ccccc5oc4=O)[nH]c(=O)c3c2C)c(C)c1	inactive: 84%
CCC(=O)N1CCc2cc(S(=O)(=O)NC(Cc3ccccc3)C(=O)Nc3ccc(C)cc3)ccc21 (stereo not given)	inactive: 74%
O=C(CC1Sc2ccc(C(F)(F)F)cc2NC1=O)Nc1ccc(Cl)c(C(F)(F)F)c1 (stereo not given)	inactive: 58%
CCN1C(=O)c2ccccc2Sc2ccc(NC(C)=O)cc21	inactive: 112%
COc1cc(C(=O)Nc2cc(C)ccc2OCc2cc(=O)n3c(C)csc3n2)cc(OC)c1OC	inactive: 49%
CCCc1cc(=O)[nH]c(Nc2cccc(Cl)c2Cl)n1	inactive: 79%
CCOc1ccc(-n2c(SCc3ccc(C(=O)OC)o3)nc3c([nH]c4ccccc43)c2=O)cc1	inactive: 82%
CCOc1ccc(-c2cc(OC(=O)c3ccc(F)cc3)c3c(C)oc(C)c3c(=O)c2)cc1	inactive: 67%
CCCC(C(=O)NC1CCCC1)N(Cc1ccccc1)C(=O)Cn1nnc(-c2ccc(C)o2)n1 (stereo not given)	inactive: 119%
COc1ccc(CCNC(=O)c2cc3c(-c4ccccc4F)nn(C)c3s2)c(OC)c1	inactive: 82%
CCOC(=O)C1CCCN(S(=O)(=O)c2ccc3c(c2)CCCN3C(C)=O)C1 (stereo not given)	inactive: 66%
COc1ccc(NC(=O)c2cc3c(s2)-c2c(C)cccc2OC3)c(OC)c1	inactive: 78%
O=C(Nc1ccc(Br)cc1F)c1cc(S(=O)(=O)NCc2ccc(F)cc2)ccc1F	inactive: 67%
C=C(C)Cn1c(=O)c2c(nc3n2CCN3c2ccc(CC)cc2)n(C)c1=O	inactive: 114%
CCCCNc1nc(Oc2ccc(=O)[nH]n2)nc(N(C)C)n1	inactive: 84%
CCc1nn(CC(=O)NCCCN(CC)CC)c(=O)c2cc3sc(C)cc3n12	inactive: 95%
CSc1ncc(C(=O)Nc2ccccc2C(=O)c2ccccc2)c(C(F)(F)F)n1	inactive: 88%
